We go through six substances from publication PMC5013049.

Sequences of proteins named here, by UniProt entry; tags and fusion partners are left off.
UniProt Q1EH97: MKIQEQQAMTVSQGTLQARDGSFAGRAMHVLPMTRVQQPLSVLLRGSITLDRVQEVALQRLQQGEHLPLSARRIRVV
UniProt Q699Q6: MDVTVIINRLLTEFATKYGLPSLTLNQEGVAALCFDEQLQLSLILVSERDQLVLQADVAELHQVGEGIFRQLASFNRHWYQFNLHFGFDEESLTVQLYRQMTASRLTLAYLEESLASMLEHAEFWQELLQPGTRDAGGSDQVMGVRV

These are yes or no findings as the source states them, for the method shown. Some entries that bind do so weakly or less than the wild type.

Assay [1] deals with ExsD (BACTH fusion) (Aeromonas hydrophila) (UniProt Q699Q3). Put plainly: two-hybrid; BACTH (Euromedex kit): T25 and T18 fusions co-transformed into E. coli BTH101, MacConkey/maltose agar with 0.5 mM IPTG, 2 nights at 30°C; pink/red colonies positive, white negative; each exs gene in all four vectors; three times for each combination.
In assay [2] the target is ExsE (BACTH fusion) (Aeromonas hydrophila) (UniProt Q1EH97). The description is as above.
In assay [3] the target is HisExsE (Aeromonas hydrophila) (UniProt Q1EH97). Description: far-Western, overlay or dot blot; purified His-tagged Exs proteins separated by SDS-PAGE and blotted on nitrocellulose; probed 1 h with an MBP-fused Exs protein or MBP5; detected with anti-MBP; PBST washes; both purified.
In assay [4] the target is MBP-ExsE (Aeromonas hydrophila) (UniProt Q1EH97). Put plainly: far-Western, overlay or dot blot; in reverse: MBP-fused Exs proteins blotted on nitrocellulose, probed with HisExsD; detected by the tag of the probe; both purified.
Assay [5] has as its target HisExsC (Aeromonas hydrophila) (UniProt Q699Q6). Put plainly: far-Western, overlay or dot blot; purified His-tagged Exs proteins separated by SDS-PAGE and blotted on nitrocellulose; probed 1 h with an MBP-fused Exs protein or MBP5; detected with anti-MBP; PBST washes; both purified.

Consider “ExsD (BACTH fusion) (from UniProt Q699Q3 1-271)”, for which the binding result in assay [1] is given as “no binding”.

On to “ExsE (BACTH fusion) (from UniProt Q1EH97 1-77)”, for which the binding entry in assay [2] is recorded as “binds weakly”. As to MBP-ExsC (from UniProt Q699Q6 1-147), in assay [3], the binding result is listed as “binds”.

On to HisExsD (from UniProt Q699Q3 1-271), for which the binding entry in assay [4] was “no binding”. As for “ExsC (BACTH fusion) (from UniProt Q699Q6 1-147)”, in assay [2], the binding entry is “binds”. With MBP-ExsE (from UniProt Q1EH97 1-77), the binding result in assay [5] and in assay [3] was “binds” in each case.
